This assay deals with MDA-MB-468 breast. Description: NCI tumour cell line growth inhibition, 48 h.

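Grown in 96-well plates, cells were treated for 48 hours with each compound at five concentrations. Insufficient inhibition: endpoint recorded as highest concentration tested. Abbreviation: GI50, concentration required for 50% inhibition of growth.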 A number of entries come with more than one value. The other results are left out here. The source may hold further records. Values that stand side by side are repeats in other runs, samples, wells, individuals or studies. A tag in brackets gives the origin of a value. Letters count within one entry.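 TGI marks complete inhibition of growth.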

Take `S=c1nc[nH]c2nc[nH]c12`: the GI50 was 3.04 µM [sample A, 1 test] and 204 nM [sample B, 1 test]; the TGI was > 750 µM [sample A, 1 test] and 970 nM [sample B, 1 test].

Values taken from PubChem BioAssay (NCI).
